# Source: PMC4336329 (PLoS ONE, 2015)
# Hit rate of the full screen: of about 310,000 compounds, about 14,000 (4.5%) showed an effect of 50% or more. Effects have a minus sign here. This is one part of the list.
# Biological target: human ether-à-go-go-related gene (hERG) potassium channel (human, UniProt Q12809)
# Test: primary screen, population patch clamp on CHO cells stably expressing hERG
# 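Note: peak tail current of the secondary pulse compared with the same well before compound.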
# Chain of human ether-à-go-go-related gene (hERG) potassium channel (Q12809 whole entry, looked up): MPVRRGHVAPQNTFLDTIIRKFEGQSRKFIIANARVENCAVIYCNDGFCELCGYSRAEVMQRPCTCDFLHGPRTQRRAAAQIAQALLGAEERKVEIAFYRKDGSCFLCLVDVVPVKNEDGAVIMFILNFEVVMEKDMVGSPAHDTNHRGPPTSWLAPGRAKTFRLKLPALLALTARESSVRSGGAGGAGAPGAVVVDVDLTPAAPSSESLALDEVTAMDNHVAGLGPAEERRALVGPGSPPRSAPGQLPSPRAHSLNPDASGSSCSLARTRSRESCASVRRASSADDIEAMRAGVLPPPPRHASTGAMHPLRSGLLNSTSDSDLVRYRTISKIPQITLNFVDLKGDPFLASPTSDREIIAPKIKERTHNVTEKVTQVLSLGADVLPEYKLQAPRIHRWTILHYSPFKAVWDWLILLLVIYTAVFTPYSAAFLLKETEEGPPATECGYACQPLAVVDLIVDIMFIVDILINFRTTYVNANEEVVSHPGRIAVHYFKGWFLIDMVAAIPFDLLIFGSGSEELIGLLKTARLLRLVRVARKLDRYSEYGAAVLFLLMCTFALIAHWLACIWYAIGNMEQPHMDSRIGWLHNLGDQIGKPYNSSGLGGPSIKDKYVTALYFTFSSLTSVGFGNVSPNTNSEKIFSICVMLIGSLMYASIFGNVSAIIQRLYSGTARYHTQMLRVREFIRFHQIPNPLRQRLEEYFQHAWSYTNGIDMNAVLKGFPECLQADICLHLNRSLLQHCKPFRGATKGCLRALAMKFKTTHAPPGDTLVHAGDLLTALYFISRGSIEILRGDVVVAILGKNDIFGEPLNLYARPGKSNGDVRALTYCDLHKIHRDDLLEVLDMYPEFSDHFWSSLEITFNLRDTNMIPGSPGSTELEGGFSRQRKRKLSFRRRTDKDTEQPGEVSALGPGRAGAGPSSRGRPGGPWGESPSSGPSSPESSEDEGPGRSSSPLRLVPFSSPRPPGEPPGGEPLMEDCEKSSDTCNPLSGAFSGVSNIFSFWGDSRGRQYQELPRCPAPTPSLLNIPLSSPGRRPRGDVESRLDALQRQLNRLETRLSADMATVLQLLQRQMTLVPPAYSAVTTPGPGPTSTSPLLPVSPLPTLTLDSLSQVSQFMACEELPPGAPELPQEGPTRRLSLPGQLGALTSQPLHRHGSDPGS
row,Compound,"hERG current change (%, negative = inhibition) at 10uM [%]"
1,CCn1c(C(C)NC(=O)c2ccc(OC)c(OC)c2)nc2ccccc21 (centres unmarked),-40
2,CC(=O)Nc1ccc(NC(=O)c2ccc3c(c2)C(=O)N(c2ccccc2C)C3=O)cc1,9.23
3,O=C1C(Cc2ccccc2)SC(=Nc2ccccc2)N1c1ccccc1 (centres unmarked),16.6
4,O=C(Nc1ccc(-c2noc(COc3ccccc3Cl)n2)cc1)c1ccco1,17.6
5,Cc1cn(S(=O)(=O)c2ccc(Br)c3ccccc23)cn1,6.78
6,COCCCNC(=O)c1cn(-c2cccc(OC)c2)c(=O)c2ccccc12,18.1
7,CC(=O)O[C@@H]1C[C@H]2C(C)(C)C(=O)C=C[C@]2(C)[C@H]2CC[C@@]3(C)[C@H](c4ccoc4)OC(=O)[C@H]4O[C@]43[C@@]21C,-43.1
8,Cc1c(Cl)cccc1NC(=O)CCCn1cnc([N+](=O)[O-])n1,-2.37
9,CCN(CC)C(=O)COc1cc(C)cc2oc(=O)cc(-c3ccccc3)c12,-34.5
10,Cc1ccc(CNCCCSc2ncccn2)cc1,-15.5
11,Cc1cc(-c2ccc(/C=N/n3cnnc3)o2)c(C)c([N+](=O)[O-])c1,4.61
12,CC(=O)Nc1ccc(NS(=O)(=O)c2ccc(OC(C)C(=O)N3CCOCC3)cc2)cc1 (centres unmarked),-9.39
13,COc1cccc(N2[C@@H](CC(C)=O)c3cc(C(F)(F)F)ccc3S2(=O)=O)c1,1.46
14,Cc1ccccc1-c1cc(C(=O)n2cccn2)c2cc(Cl)ccc2n1,3.41
15,Cc1ccc(/C=N/NC(=O)c2nc3nc(C)cc(C)n3n2)cc1,-12.6
16,O=C(Nc1ccn(Cc2cccc3ccccc23)n1)c1cccnc1,0.177
17,CS(=O)(=O)N(CC(=O)NCC1CCCO1)c1cccc(Cl)c1 (centres unmarked),17.3
18,C/C(CC(=O)Nc1cccc(Cl)c1)=N\NC(=O)Cc1ccc(Cl)cc1,-5.29
19,COCCNC(=O)C(=O)NCC1OCCN1S(=O)(=O)c1ccc(F)cc1 (centres unmarked),0.707
20,COc1cc(NC(=O)C2CC(=O)NC3=C2C(=O)CC(C)(C)C3)c(OC)cc1Cl (centres unmarked),-29.3
21,Cc1cccc(C(=O)NCC(c2ccco2)N2CCc3ccccc32)c1 (centres unmarked),-25.6
22,Cc1nc2nc[nH]n2c(=O)c1CC(=O)O,1.37
23,COc1cc(NC(=O)Cn2cnc(S(=O)(=O)N3CCCC3)c2)cc(OC)c1OC,15.1
